# Assay results reported in the supplement of paper PMC3334620.
# In all, about 33,000 sequences were measured (“E-score (-0.5 to 0.5)”: median about -0.021, highest 2% from about 0.32 on). Some of the results follow.
# Target: T1, Zap1 (UniProt P47043)
# T1 sequence: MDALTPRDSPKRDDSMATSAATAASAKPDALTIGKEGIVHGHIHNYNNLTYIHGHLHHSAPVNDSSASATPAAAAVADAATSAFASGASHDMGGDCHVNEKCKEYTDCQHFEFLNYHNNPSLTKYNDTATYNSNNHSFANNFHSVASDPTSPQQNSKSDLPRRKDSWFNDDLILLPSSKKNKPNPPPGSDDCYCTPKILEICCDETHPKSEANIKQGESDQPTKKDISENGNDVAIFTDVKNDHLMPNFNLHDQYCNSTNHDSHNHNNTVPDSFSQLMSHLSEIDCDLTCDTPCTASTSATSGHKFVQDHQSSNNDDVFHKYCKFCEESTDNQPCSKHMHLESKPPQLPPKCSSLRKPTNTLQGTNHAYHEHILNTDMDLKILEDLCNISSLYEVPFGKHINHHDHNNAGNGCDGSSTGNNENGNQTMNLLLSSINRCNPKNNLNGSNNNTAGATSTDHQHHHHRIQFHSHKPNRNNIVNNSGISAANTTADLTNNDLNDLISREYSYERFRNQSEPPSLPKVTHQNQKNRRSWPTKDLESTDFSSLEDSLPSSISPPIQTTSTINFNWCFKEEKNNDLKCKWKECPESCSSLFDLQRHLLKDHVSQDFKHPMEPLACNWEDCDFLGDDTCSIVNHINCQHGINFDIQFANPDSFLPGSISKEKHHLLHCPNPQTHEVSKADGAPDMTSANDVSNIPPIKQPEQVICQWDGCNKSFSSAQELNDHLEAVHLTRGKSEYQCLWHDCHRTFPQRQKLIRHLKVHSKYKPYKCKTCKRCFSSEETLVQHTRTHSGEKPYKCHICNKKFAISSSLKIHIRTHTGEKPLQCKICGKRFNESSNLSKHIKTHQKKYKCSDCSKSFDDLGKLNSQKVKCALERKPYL
# Experiment: PBM E-score (8-mer binding enrichment) (E-score (-0.5 to 0.5)); higher = stronger / more preferred TF binding; most listed sequences are background and not binding sites
# Conditions: protein concentration: 200 nM; construct: GST-full length
# How it was run: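 E-scores (a modified Wilcoxon-Mann-Whitney statistic) were assigned by the Universal PBM Analysis Suite to every ungapped eight-base word pooled with its reverse complement. The input came from universal all-10-mer Agilent arrays made double-stranded by primer extension and probed with GST-tagged yeast transcription factors at about 100-200 nM. Fluorescent anti-GST detected bound protein, and masliner normalised the scans.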
row,Sequence,PBM E-score
1,TACGAGCA,-0.262
2,CAACACCA,0.0784
3,GGTGATGA,0.338
4,CTTCATTA,0.128
5,AGCTGACG,-0.196
6,CGACATGA,-0.13
7,TAGCTTCA,-0.0845
8,GGACCAAC,0.0453
9,CGAGGTAC,0.187
10,AAATGGGC,-0.113
11,CTACTTCC,0.0316
12,TAGTGATA,0.112
13,ATATTCTA,0.0377
14,CATATGTA,0.169
15,ACGCTACG,-0.129
16,GACGTAGC,-0.216
17,CTGTCCTC,-0.192
18,CGTAAACA,0.124
19,GTATGTGA,0.0632
20,ATAGAGCA,0.0499
21,GTCAGGTA,0.109
22,TCCCTTCA,-0.0499
23,ACACCCAG,-0.12
24,CTATCCAA,-0.164
25,AATAAGGG,0.0215

row,Sequence,PBM E-score
1,AACATCGG,-0.124
2,CACATCGG,-0.0476
3,AGCATCTA,-0.248
4,GGCACCTA,-0.00828
5,AGAGAATA,-0.01
6,AGTAATTC,0.084
7,AGTCGAGC,-0.254
8,AAACATTG,-0.00173
9,TGTATACA,0.131
10,GCAGCCTA,-0.218
11,GTGCATTA,0.135
12,ATTTAAGC,0.159
13,CGAATCCA,-0.0431
14,TAGTAACA,0.0724
15,AAATTGTA,0.0146
16,ACGAGTTA,0.0684
17,CCCCAAGA,0.0838
18,GCAGCTTA,-0.106
19,CGCTATTC,-0.0217
20,CAGCCGTC,-0.125
21,AATGCCTC,-0.25
22,ATTGTATG,0.0229
23,TAATTGCA,0.12
24,ATACCGCC,-0.117
25,ATCTGGCC,-0.0975

row,Sequence,PBM E-score
1,GTCTTGTA,-0.0425
2,GTCTAGAC,-0.295
3,CCTCCCAC,-0.229
4,TAATGGTA,0.309
5,CTTATGCA,0.0862
6,GTAAGTAC,-0.0293
7,CTTCGGCA,-0.0521
8,AGGTTCTC,0.299
9,AGATTACC,0.27
10,ACCAAATC,0.0501
11,AGTGAGGC,-0.0666
12,CCACCCAC,0.263
13,GCCTGCTA,-0.213
14,AGCACGAA,-0.0881
15,GACATATA,0.0111
16,TCAAACGA,0.0515
17,ATTCATTC,0.13
18,CATTTTAC,0.213
19,AGGCCCCT,0.0315
20,CACGGACA,0.0578
21,TACTGCGA,-0.00442
22,GAGACTTA,-0.174
23,AGCCATAA,-0.047
24,AGACATCC,-0.139
25,AAGCGTAA,-0.126

row,Sequence,PBM E-score
1,CTCCATGA,0.0162
2,AGTCACGA,0.0207
3,CGTTACTA,0.0809
4,CTCTCACA,0.135
5,CCGGAGGC,-0.179
6,GTGTGCCA,-0.11
7,AAGCGCTC,-0.28
8,CTGTGAGA,0.135
9,ATTCCTAC,-0.0543
10,AAGTCAAT,-0.0873
11,ATTATCCG,0.0395
12,AGCGCTAT,-0.0584
13,AAGACCGA,0.164
14,CGTTCTGA,0.0654
15,GCAGTTCA,0.0294
16,CAGGTTTC,0.198
17,AGAACTCG,-0.124
18,CCGGGTTA,0.388
19,ACATACCA,-0.0785
20,CTCATTCC,-0.186
21,GGTCGGGA,0.149
22,AACGTTAT,0.00465
23,ATTGCGGG,0.11
24,ACGTAACT,0.0456
25,CCGGATCG,-0.0871

row,Sequence,PBM E-score
1,GATGACGC,-0.246
2,AGTATTTG,0.00918
3,AGAGCAAC,-0.0037
4,CGCATGGC,-0.059
5,GAAAGACA,-0.126
6,CGGCAATC,-0.102
7,ATATGAAG,0.0132
8,ATGTGCAA,0.136
9,CACTAGCC,0.0318
10,CACAAAAA,0.273
11,ATGTCGCC,-0.345
12,AAAGTTAG,0.104
13,CATACCAG,0.0326
14,GCTGGTTA,0.329
15,AGGAAATG,0.0675
16,TAAGTAAA,0.0554
17,GCGCCCCA,-0.174
18,AACAGCTC,-0.13
19,AACCGCCT,0.123
20,AGCAGGTG,0.053
21,ACGATTAT,-0.0828
22,ACAGTTTG,-0.102
23,CAGTTGCG,-0.00872
24,AAGCTAAA,-0.0715
25,AGCGGGCA,-0.257

row,Sequence,PBM E-score
1,ATTTTGAG,0.224
2,CGGTCACC,0.276
3,ACTGTACG,-0.127
4,AGCCTATC,-0.258
5,CAAGCCAG,-0.11
6,CAAATGGA,-0.084
7,CGAGCCAG,-0.265
8,CCGTACAA,0.0893
9,AATCCACC,-0.143
10,ATAACGTG,0.0108
11,ACACTGGT,-0.0246
12,CGTGCTCC,-0.168
13,GCTCCATA,-0.0964
14,GGGAGTCA,-0.172
15,ATTATCGG,0.034
16,ACCCCGGG,0.34
17,GACAGAAC,0.032
18,ATAACCAT,0.457
19,CTGCAAGA,-0.16
20,ACCCCATG,0.255
21,TTCCGGAA,-0.0117
22,CAAAGAAA,0.032
23,GACTGACA,-0.171
24,AAATCCGT,-0.00373
25,GACTCTCC,-0.236

row,Sequence,PBM E-score
1,AAGCTACT,-0.0501
2,AGAGTCCA,-0.0365
3,ATTCGGTG,0.0803
4,CTACCGGC,-0.0647
5,ACCTTGCG,0.284
6,CCGTTGCA,-0.114
7,GTTATGAA,0.266
8,CAATTGAA,-0.0576
9,ACGTGCAG,-0.0296
10,ACCTACCG,0.0943
11,CGCTGAAG,-0.123
12,AACTCCTT,-0.105
13,GAGTCATC,-0.203
14,CTGGATGC,-0.0886
15,CTCTTTGA,0.0565
16,ACCTCGCG,0.109
17,GCCACCCA,-0.0281
18,ATCAATTG,0.106
19,ATGAAGGA,0.076
20,AAGAATCG,0.0553
21,GACAACGC,-0.131
22,CCTGATGA,0.224
